Results reported in PubChem BioAssay AID1240 (Sanford-Burnham Center for Chemical Genomics, 2008).
The campaign covered roughly 50,000 compounds. About 800 (1.6%) showed an effect of 50% or more. The list shows a part of the results.

These molecules were tested against Bcl-2-like protein 10 (Homo sapiens) (UniProt Q9HD36) (assay: TR3 peptide-Bcl-B binding displacers, biochemical primary FP assay, phenotype converters (AID 1240;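 also: 0% = Bcl-B with tracer peptide and DMSO and 100% = tracer peptide lacking Bcl-B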)). Details: GST-Bcl-B / FITC-TR3 peptide fluorescence polarization; stronger effect = higher value; compound at 3.75 mg/L.
Sequence of UniProt Q9HD36 (Q9HD36 whole entry, looked up): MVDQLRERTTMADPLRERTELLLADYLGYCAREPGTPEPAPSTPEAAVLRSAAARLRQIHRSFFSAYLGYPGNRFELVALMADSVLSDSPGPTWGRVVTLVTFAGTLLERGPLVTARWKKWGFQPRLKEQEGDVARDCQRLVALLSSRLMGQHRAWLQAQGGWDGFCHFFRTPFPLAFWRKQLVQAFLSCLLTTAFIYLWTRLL
Work on CN1CCN(C(=O)/C(=C\c2cccs2)NC(=O)c2cccs2)CC1 yielded a displacement of 0.6%. In the case of Cc1c(C(=O)O)cccc1-n1c(=O)c2cc3c(=O)n(-c4cccc(C(=O)O)c4C)c(=O)c3cc2c1=O, the displacement is reported as 14%. Work on CCOC(=O)c1c(NC(=O)c2ccco2)sc(C(=O)Nc2cc(C(F)(F)F)ccc2Cl)c1C yielded a displacement of 7.6%. O=C(Nc1ccc(-c2nc3ccccc3c(=O)o2)cc1)c1cccc([N+](=O)[O-])c1 was tested, and the displacement was -5.5%. Work on Cc1onc(-c2ccccc2Cl)c1C(=O)NN yielded a displacement of -10.7%. With CC1=C(C(=O)OCCc2ccccc2)C(c2ccccc2[N+](=O)[O-])NC(=O)N1C (configuration not stated) the displacement was -2.5%. O=C(Cn1c(NCCO)nc2ccccc21)c1ccc([N+](=O)[O-])cc1 showed a displacement of 9.3%. O=C(NCc1ccc2c(c1)OCO2)c1ccc(Cl)cc1[N+](=O)[O-] was tested, and the displacement was -14.5%. COc1ccc(OC)c(C2=C/C(=C\c3c(OC)ccc4ccccc34)C(=O)O2)c1 gave a displacement of 15.9%. With CN(C)c1cccc(C(=O)NCCc2ccccc2)c1 the displacement was 11.9%. O=S(=O)(Cc1ccc(Cl)cc1)CC(O)COc1ccc(Cl)cc1 (configuration not stated) was tested, and the displacement was -5.4%. In the case of COc1ccc(/C=C/C(=O)Nc2c(C)ccc3nsnc23)cc1, the displacement is reported as 0.8%. Molecule Cc1c(NC(=O)CC2=CCCC2)c(=O)n(-c2ccccc2)n1C has a displacement of -5.8%. COc1ccc(N2C(=O)NC(=O)/C(=C\c3cc(OC)c(OC)cc3OC)C2=O)cc1 was tested, and the displacement was 3.3%. O=C(NC(=S)Nc1ccc(F)cc1)c1ccccc1 gave a displacement of -8.5%. Molecule COC(=O)c1cc(NC(=O)c2ccc(C)c([N+](=O)[O-])c2)cc(C(=O)OC)c1 has a displacement of 6%. Work on COc1cccc(/C=N/NC(=O)C2CC(=O)N(c3ccc(C)cc3)C2)c1 (configuration not stated) yielded a displacement of -13.6%. Molecule CSc1ccc(S(=O)(=O)N(CC(=O)Nc2ccccc2Cl)c2ccc(C)cc2)cc1 has a displacement of -12.8%. Molecule O=C1CC(c2cccc(Cl)c2)c2cc(Br)c3ccccc3c2N1 (configuration not stated) has a displacement of -0.9%. For COc1ccccc1OCCNC(=O)c1ccccc1I, the displacement was 12.9%. O=C(CCCOc1ccc(Cl)cc1Cl)n1cnc2ccccc21 gave a displacement of -5.4%. For Cc1ccc(NC(=O)Cc2ccc(F)cc2)cc1, the displacement was 15%. For COc1cccc(N2C(=O)c3ccc4c5c(ccc(c35)C2=O)C(=O)N(c2cccc(OC)c2)C4=O)c1, the displacement was 13.6%. For CN(C)CCNc1ncnc2ccc(Br)cc12, the displacement was -1.9%. Cc1cccc(N=C2NC(=O)/C(=C3/C(=O)N(C)c4ccccc43)S2)c1C was tested, and the displacement was 13.8%. Work on Cc1occc1C(=O)N/N=C/c1ccccc1 yielded a displacement of 4.2%. In the case of C=CCN(c1ccccc1C(=O)O)S(=O)(=O)c1ccc(NC(=O)OC)cc1, the displacement is reported as -7%. For COC(=O)c1c(-c2ccc(Cl)cc2)csc1NC(=O)C1CCCCC1C(=O)O (configuration not stated), the displacement was 1.9%. O=C(Nc1cccc(Cl)c1Cl)C1COc2ccccc2O1 (configuration not stated) was tested, and the displacement was -2%. COc1ccc(-n2c(C=C3C(=O)N(C)c4ccccc43)nc3ccccc3c2=O)cc1 was tested, and the displacement was -9.7%. Cc1ccc(NC(=O)C(=O)NCCN2CCN(S(C)(=O)=O)CC2)cc1 gave a displacement of 5.4%. With COc1ccc(NC(=O)c2c(C)c(-c3ccc(C)cc3)nc3ccccc23)c(OC)c1 the displacement was -2.9%. S=c1[nH]nc(COc2ccccc2)n1C1CCCCC1 showed a displacement of -6.5%. Molecule Cc1nc(-c2ccccc2)nc2[nH]c(-c3ccccc3)cc(=O)c12 has a displacement of 69.8%. For CC(C)(C)c1ccc(O)c(N=Cc2cc(Cl)cc([N+](=O)[O-])c2O)c1, the displacement was -5.3%. With N#C/C(=C/c1cc([N+](=O)[O-])ccc1Cl)C(=O)Nc1cccc(Br)c1 the displacement was -3.3%. Work on COC(=O)C(NC(=O)c1ccc(Br)cc1)c1ccccc1 (configuration not stated) yielded a displacement of -10.2%. CCOC(=O)C1=C(C)N=c2s/c(=C\c3ccccc3)c(=O)n2C1/C=C/c1ccccc1 (configuration not stated) was tested, and the displacement was 9.1%. Work on O=C(NC(=S)Nc1ccc(Cl)cc1Cl)c1cccs1 yielded a displacement of 0.7%. Molecule COc1c(Cl)cc(C(=O)Nc2ccc(Cl)cn2)cc1Cl has a displacement of 9.3%. Molecule COC(=O)c1ccc(CSc2nc3sc4c(c3c(=O)n2-c2ccccc2)CCCC4)cc1 has a displacement of -4.5%. With Cc1ccc(C(=O)Nc2cccc(Br)c2)cc1[N+](=O)[O-] the displacement was 10.7%. In the case of COC(=O)c1ccc(NC(=O)c2ccc3nccnc3c2)cc1, the displacement is reported as 4.5%. O=C1CCC(=O)N1c1cccc(-c2nc3ccccc3o2)c1 was tested, and the displacement was -9.6%. O=C1OC(c2ccc(Cl)cc2)=C/C1=C\c1ccc([N+](=O)[O-])cc1 showed a displacement of -13.3%. In the case of O=C(Nc1ccc(Cl)c(Cl)c1)c1cnn2c1NC(c1ccc(Br)cc1)CC2C(F)(F)F (configuration not stated), the displacement is reported as 14.3%. Molecule COc1ccc(C(=O)NNC(=O)COc2ccc(C)cc2C)cc1 has a displacement of -1%. CCc1cccc(C)c1NC(=O)CSc1nc2ccccc2[nH]1 showed a displacement of 0.7%. In the case of CCCCCc1nc2sc3c(c2c(=O)n1N)CC(C)(C)OC3, the displacement is reported as -1.5%. O=C1CC(N2CCC(Cc3ccccc3)CC2)C(=O)N1c1ccc(F)cc1 (configuration not stated) gave a displacement of 5.4%. With Fc1ccc(CCNC2CCN(Cc3ccccc3)CC2)cc1 the displacement was 10%. Work on CCN(CC)CCN1C(=O)C(O)=C(C(=O)/C=C/c2ccccc2)C1c1cccc([N+](=O)[O-])c1 (configuration not stated) yielded a displacement of -10%. For O=C1C2C3CCC(O3)C2C(=O)N1c1cccc([N+](=O)[O-])c1 (configuration not stated), the displacement was 17.9%. N#CCCN1c2ccccc2Sc2ccc(C(F)(F)F)cc21 was tested, and the displacement was 5%. Molecule COc1ccccc1/C=C(\NC(=O)c1ccccc1)C(=O)NCCc1c[nH]c2ccccc12 has a displacement of -3.2%. Molecule Cc1ccc(-c2ccc(OCC(=O)Nc3cccc(C)c3)cc2)cc1 has a displacement of -4.4%. Clc1cc(Cl)c2c(c1)C=C1CCCCC1(N1CCCCC1)O2 (configuration not stated) gave a displacement of 5.3%. CC(C)C(=O)Nc1nnc(Cc2cccc(Br)c2)s1 was tested, and the displacement was -8.3%. In the case of CSc1ccc(S(=O)(=O)N(CC(=O)Nc2ccc3ccccc3c2)c2ccc(C)cc2)cc1, the displacement is reported as -2.5%. CCOC(=O)C1=C(c2ccccc2)N(C)C(=O)NC1c1ccc2c(c1)OCO2 (configuration not stated) showed a displacement of 3.6%. Cc1ccc(/C=C2\C(=O)NC(=O)N(c3cccc(Br)c3)C2=O)cc1 showed a displacement of 6.3%. With Cc1ccccc1NC(=O)c1ccc(C)c(S(=O)(=O)Nc2cccc([N+](=O)[O-])c2)c1 the displacement was -25.3%. With O=C(CSc1nc2ccccc2n1Cc1ccccc1)N/N=C/c1cccc(O)c1 the displacement was -2.4%. For COc1ccc(N2C(=O)NC(=O)/C(=C/c3cccc(OC)c3O)C2=O)cc1, the displacement was -4.8%. COC(=O)CN(c1ccccc1C)S(=O)(=O)c1ccccc1 showed a displacement of -0.9%. CC(C)Cc1ccc(C(C)C(=O)Nc2cccc(O)c2)cc1 (configuration not stated) gave a displacement of 14.9%. Fc1ccc(NC(=S)N2CCN(C/C=C/c3ccccc3)CC2)cc1 showed a displacement of 4.5%.
